Experimental data: the supplement of paper PMC9046079
Counter-ions that a name gives are not always drawn. ± gives the standard deviation of the averaged measurements. The list shows a part of the results.

Tests used:
[1] = test system: murine small intestinal organoids (ENR+CD Paneth differentiation); experiment: cellular ATP (CellTiter-Glo 3D) relative to plate median (log10 fold change); higher = more viable cells; conditions: 6 d
[2] = test system: murine small intestinal organoids (ENR+CD Paneth differentiation); experiment: carbachol-stimulated secreted lysozyme activity relative to plate median (log10 fold change); higher = more Paneth cell lysozyme secretion; conditions: 6 d, carbachol 10 µM
[3] = test system: murine small intestinal organoids (ENR+CD Paneth differentiation); experiment: basal (non-stimulated) secreted lysozyme activity relative to plate median (log10 fold change); higher = more Paneth cell lysozyme secretion; conditions: 6 d
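Throughout, for basal (non-stimulated) secreted lysozyme activity relative to plate median: ISC-enriched organoid precursors grown as 2.5D pseudo-monolayer on Matrigel, compound given on day 0 and day 3, plate values LOESS-normalized before median fold change, three murine donors.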
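Throughout, for cellular ATP (CellTiter-Glo 3D) relative to plate median: 2.5D pseudo-monolayer culture of ISC-enriched organoids partly embedded atop Matrigel, compound added on day 0 and again on day 3, per-plate LOESS correction before median fold change.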

SMILES | cellular ATP (log10) ([1]; 0.08 µM) | cellular ATP (log10) ([1]; 0.4 µM) | cellular ATP (log10) ([1]; 2 µM) | cellular ATP (log10) ([1]; 10 µM) | carbachol-stimulated secreted lysozyme activity (log10) ([2]; 0.08 µM) | carbachol-stimulated secreted lysozyme activity (log10) ([2]; 0.4 µM) | carbachol-stimulated secreted lysozyme activity (log10) ([2]; 2 µM) | carbachol-stimulated secreted lysozyme activity (log10) ([2]; 10 µM) | basal (log10) ([3]; 0.08 µM) | basal (log10) ([3]; 0.4 µM) | basal (log10) ([3]; 2 µM) | basal (log10) ([3]; 10 µM)
CCN1CCC[C@H]1CNC(=O)c1cc(S(N)(=O)=O)ccc1OC [Levosulpiride] | -0.0429 ± 0.16 | -0.00649 ± 0.17 | 0.0311 ± 0.19 | 0.0899 ± 0.12 | -0.0868 ± 0.1 | 0.126 ± 0.12 | 0.147 ± 0.21 | -0.0725 ± 0.041 | 0.0131 ± 0.084 | 0.0235 ± 0.032 | 0.0506 ± 0.026 | -0.0276 ± 0.083
O=C1c2ccccc2-c2n[nH]c3cccc1c23 | 0.163 ± 0.22 | 0.189 ± 0.3 | 0.168 ± 0.22 | 0.0566 ± 0.15 | 0.189 ± 0.091 | 0.0815 ± 0.16 | 0.091 ± 0.031 | 0.055 ± 0.15 | 0.11 ± 0.054 | 0.00147 ± 0.049 | 0.115 ± 0.22 | 0.0136 ± 0.038
O=c1oc2cc(O)ccc2s1 [Tioxolone] | 0.262 ± 0.21 | 0.0555 ± 0.13 | 0.0751 ± 0.11 | 0.282 ± 0.22 | 0.191 ± 0.31 | -0.000561 ± 0.099 | -0.0136 ± 0.16 | 0.0249 ± 0.062 | 0.112 ± 0.12 | -0.0254 ± 0.087 | 0.00383 ± 0.11 | -0.00748 ± 0.063
O=C(/C=C\n1cnc(-c2cc(C(F)(F)F)cc(C(F)(F)F)c2)n1)NNc1cnccn1 | 0.21 ± 0.12 | -0.657 ± 0.51 | -0.894 ± 0.28 | -1.88 ± 0.45 | 0.321 ± 0.066 | -0.258 ± 0.32 | -0.486 ± 0.049 | -0.529 ± 0.011 | 0.2 ± 0.14 | -0.266 ± 0.088 | -0.28 ± 0.12 | -0.284 ± 0.11
CCOC(=O)[C@H](CCc1ccccc1)N[C@@H](C)C(=O)N1C(=O)N(C)C[C@H]1C(=O)O [Imidapril HCl] | -0.333 ± 0.14 | -0.148 ± 0.077 | -0.236 ± 0.27 | -0.227 ± 0.15 | -0.0566 ± 0.096 | 0.18 ± 0.32 | -0.0367 ± 0.039 | -0.126 ± 0.086 | -0.00562 ± 0.056 | 0.000457 ± 0.062 | 0.0139 ± 0.079 | -0.0811 ± 0.092
Cc1cn(-c2cc(NC(=O)c3ccc(C)c(Nc4nccc(-c5cccnc5)n4)c3)cc(C(F)(F)F)c2)cn1 [Nilotinib (AMN-107)] | 0.322 ± 0.12 | 0.348 ± 0.075 | 0.242 ± 0.059 | -0.012 ± 0.22 | 0.215 ± 0.038 | 0.27 ± 0.0072 | 0.0302 ± 0.13 | -0.202 ± 0.13 | 0.196 ± 0.021 | 0.162 ± 0.072 | 0.0852 ± 0.062 | -0.0925 ± 0.029
Nc1cccc2c1CN(C1CCC(=O)NC1=O)C2=O (stereo not drawn) [Lenalidomide (CC-5013)] | 0.0462 ± 0.051 | -0.0155 ± 0.14 | -0.25 ± 0.18 | -0.316 ± 0.23 | 0.0769 ± 0.11 | 0.239 ± 0.077 | 0.0297 ± 0.011 | -0.0552 ± 0.083 | 0.147 ± 0.06 | 0.0992 ± 0.089 | 0.0706 ± 0.092 | -0.0414 ± 0.07
O=C(NC(NC(=S)Nc1ccc(F)c([N+](=O)[O-])c1)C(Cl)(Cl)Cl)C(c1ccccc1)c1ccccc1 (stereo not drawn) | -0.362 ± 0.17 | -0.0926 ± 0.05 | -0.244 ± 0.27 | -0.478 ± 0.32 | 0.00234 ± 0.044 | -0.0787 ± 0.046 | -0.114 ± 0.056 | -0.284 ± 0.26 | 0.0991 ± 0.14 | -0.0255 ± 0.12 | -0.0993 ± 0.025 | -0.122 ± 0.27
Cc1c(C(=O)NN2CCCCC2)nn(-c2ccc(Cl)cc2Cl)c1-c1ccc(Cl)cc1 [Rimonabant] | 0.275 ± 0.34 | 0.179 ± 0.22 | 0.25 ± 0.32 | -0.0132 ± 0.25 | -0.0719 ± 0.14 | 0.0588 ± 0.011 | -0.132 ± 0.15 | -0.0173 ± 0.16 | 0.0461 ± 0.15 | -0.00226 ± 0.061 | -0.0434 ± 0.17 | 0.0717 ± 0.15
CO[C@H]1C[C@@H]2CC[C@@H](C)[C@@](O)(O2)C(=O)C(=O)N2CCCC[C@H]2C(=O)O[C@H]([C@H](C)C[C@@H]2CC[C@@H](OCCO)[C@H](OC)C2)CC(=O)[C@H](C)/C=C(\C)[C@@H](O)[C@@H](OC)C(=O)[C@H](C)C[C@H](C)/C=C/C=C/C=C/1C [Everolimus (RAD001)] | 0.392 ± 0.27 | 0.127 ± 0.42 | 0.132 ± 0.029 | -0.111 ± 0.39 | -0.0597 ± 0.063 | -0.0422 ± 0.1 | -0.0636 ± 0.031 | -0.0963 ± 0.023 | 0.0678 ± 0.11 | 0.11 ± 0.066 | -0.00343 ± 0.018 | -0.0241 ± 0.027
Cc1ccc(S(=O)(=O)OCC(=O)Nc2ccc(C(=O)O)c(O)c2)cc1 | 0.323 ± 0.16 | 0.0613 ± 0.12 | 0.000827 ± 0.23 | -0.181 ± 0.25 | -0.0501 ± 0.024 | 0.262 ± 0.098 | 0.0373 ± 0.2 | 0.0453 ± 0.2 | 0.0116 ± 0.071 | 0.0632 ± 0.039 | 0.0532 ± 0.058 | 0.0359 ± 0.066
CCOC(=O)CCNc1cc(N2CCc3ccccc3CC2)nc(-c2ccccn2)n1 | 0.124 ± 0.26 | 0.0994 ± 0.27 | 0.00235 ± 0.3 | 0.233 ± 0.097 | 0.118 ± 0.076 | 0.178 ± 0.19 | 0.0654 ± 0.1 | 0.0073 ± 0.21 | 0.0583 ± 0.067 | 0.0497 ± 0.13 | 0.0176 ± 0.11 | -0.000637 ± 0.081
NC(=O)N1c2ccccc2CC(=O)c2ccccc21 [Oxcarbazepine] | -0.0213 ± 0.088 | -0.103 ± 0.071 | -0.0824 ± 0.092 | -0.15 ± 0.13 | 0.0402 ± 0.049 | 0.226 ± 0.33 | 0.0423 ± 0.03 | -0.0794 ± 0.14 | 0.00401 ± 0.0065 | -7.48e-05 ± 0.0059 | 0.0401 ± 0.066 | -0.0606 ± 0.094
CC(=O)O[C@]1(C(C)=O)CC[C@H]2[C@@H]3C=C(Cl)C4=CC(=O)[C@@H]5C[C@@H]5[C@]4(C)[C@H]3CC[C@@]21C [Cyproterone Acetate] | -0.11 ± 0.3 | 0.051 ± 0.13 | -0.143 ± 0.38 | -0.173 ± 0.25 | 0.0883 ± 0.19 | -0.00844 ± 0.15 | -0.147 ± 0.13 | -0.175 ± 0.12 | -0.0258 ± 0.099 | -0.0738 ± 0.028 | -0.0551 ± 0.08 | -0.0806 ± 0.044
O=C(NCc1ccccc1)c1csc(Nc2ccncn2)n1 [Thiazovivin] | 0.136 ± 0.12 | 0.0456 ± 0.13 | 0.348 ± 0.23 | 0.163 ± 0.14 | 0.212 ± 0.094 | -0.032 ± 0.041 | 0.0935 ± 0.19 | 0.037 ± 0.0029 | 0.0387 ± 0.14 | 0.131 ± 0.081 | 0.00863 ± 0.096 | 0.0562 ± 0.18
O=C(C=Cc1ccccc1)NC(NC(=S)Nc1ccc(Cl)cc1)C(Cl)(Cl)Cl (stereo not drawn) | -0.173 ± 0.77 | 0.185 ± 0.097 | 0.0186 ± 0.54 | -0.535 ± 0.41 | -0.263 ± 0.4 | 0.0386 ± 0.088 | -0.063 ± 0.057 | -0.283 ± 0.37 | -0.0186 ± 0.26 | 0.0244 ± 0.065 | 0.0217 ± 0.066 | -0.0292 ± 0.35
c1ccc(CC2=NCCN2)cc1 [Tolazoline HCl] | -0.0453 ± 0.53 | 0.25 ± 0.22 | 0.0771 ± 0.065 | -0.0294 ± 0.075 | 0.0724 ± 0.19 | 0.0481 ± 0.12 | -0.0254 ± 0.018 | -0.066 ± 0.071 | 0.131 ± 0.11 | 0.0861 ± 0.14 | 0.0618 ± 0.13 | 0.0834 ± 0.29
CN1CC(=O)N2[C@H](c3ccc4c(c3)OCO4)c3[nH]c4ccccc4c3C[C@@H]2C1=O [Tadalafil] | 0.451 ± 0.23 | 0.211 ± 0.51 | -0.0883 ± 1.1 | -0.315 ± 1.1 | 0.0904 ± 0.046 | -0.219 ± 0.21 | -0.122 ± 0.54 | -0.262 ± 0.31 | 0.118 ± 0.16 | -0.0414 ± 0.22 | 0.0177 ± 0.3 | -0.0452 ± 0.33
CC(C)NCC(O)COc1ccc(COCCOC(C)C)cc1 (stereo not drawn) [Bisoprolol fumarate] | -0.104 ± 0.39 | -0.0571 ± 0.079 | -0.02 ± 0.14 | 0.0582 ± 0.11 | 0.0072 ± 0.11 | 0.157 ± 0.098 | 0.094 ± 0.069 | -0.0315 ± 0.0092 | 0.0849 ± 0.088 | 0.0746 ± 0.038 | 0.0754 ± 0.074 | 0.00313 ± 0.058
CC(C)(C)c1cc(NC(=O)Nc2ccc(-c3cn4c(n3)sc3cc(OCCN5CCOCC5)ccc34)cc2)no1 [Quizartinib (AC220)] | -0.151 ± 0.9 | -0.106 ± 0.27 | -0.238 ± 0.15 | -0.301 ± 0.23 | -0.00355 ± 0.25 | 0.126 ± 0.043 | -0.072 ± 0.12 | -0.187 ± 0.29 | -0.0303 ± 0.2 | 0.144 ± 0.18 | -0.0217 ± 0.056 | -0.076 ± 0.15
O=C(Nc1ccccc1-c1cn2c(CN3CCNCC3)csc2n1)c1cnc2ccccc2n1 | -0.132 ± 1.3 | 0.3 ± 0.28 | 0.226 ± 0.23 | -0.451 ± 0.46 | -0.0687 ± 0.28 | 0.0374 ± 0.063 | 0.124 ± 0.0036 | -0.163 ± 0.13 | 0.0668 ± 0.23 | 0.0881 ± 0.14 | 0.0529 ± 0.07 | -0.0308 ± 0.059
COc1cc2c(N3CCN(C(=O)Nc4ccc(OC(C)C)cc4)CC3)ncnc2cc1OCCCN1CCCCC1 [Tandutinib (MLN518)] | 0.571 ± 0.15 | 0.211 ± 0.24 | 0.256 ± 0.15 | 0.46 ± 0.37 | -0.00852 ± 0.17 | 0.171 ± 0.17 | 0.12 ± 0.08 | 0.169 ± 0.11 | 0.0544 ± 0.16 | 0.13 ± 0.099 | 0.141 ± 0.076 | 0.0796 ± 0.095
Cc1ccccc1C(=O)Nc1ccc(C(=O)N2CCCC(O)c3cc(Cl)ccc32)c(C)c1 (stereo not drawn) [Tolvaptan] | 0.115 ± 0.061 | -0.0355 ± 0.088 | -0.0983 ± 0.18 | -0.169 ± 0.26 | 0.0494 ± 0.19 | 0.202 ± 0.24 | 0.13 ± 0.29 | -0.0847 ± 0.12 | 0.0173 ± 0.06 | -0.0491 ± 0.023 | -0.0515 ± 0.044 | -0.131 ± 0.037
O=S(=O)(c1ccccc1)N(CC(F)(F)F)c1ccc(C(O)(C(F)(F)F)C(F)(F)F)cc1 | 0.063 ± 0.38 | -0.22 ± 0.92 | 0.216 ± 0.33 | 0.245 ± 0.45 | 0.0129 ± 0.072 | -0.0231 ± 0.077 | 0.0483 ± 0.16 | 0.0285 ± 0.12 | 0.0842 ± 0.054 | 0.00181 ± 0.09 | 0.0123 ± 0.069 | -0.0212 ± 0.023
